The list shows a part of the results. Values come from read counts of a selection and are noisy. Scores sum up all selected molecules that hold the word; the word was not tested alone.
How the values were obtained:
Test in all cases: 6-mer SELEX enrichment z-score vs GST control; IMP3 is the RNA-binding protein IGF2BP3; higher = more enriched by binding
IMP3 KH1-4 = conditions: construct: KH1-4 (164-579); SELEX round: R4
Experimental: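 SELEX-seq with GST-tagged IMP3 KH1-4 (Pro164-Lys579) and an N40 RNA pool, round 4. 6-mer z-score of sequence-tag enrichment normalised to the corresponding GST SELEX round; RNA k-mers written as DNA (T for U).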

IMP3 RRM1-2 = conditions: construct: RRM1-2 (1-163); SELEX round: R2
Chain of IMP3 RRM1-2 (chain, as listed by the source): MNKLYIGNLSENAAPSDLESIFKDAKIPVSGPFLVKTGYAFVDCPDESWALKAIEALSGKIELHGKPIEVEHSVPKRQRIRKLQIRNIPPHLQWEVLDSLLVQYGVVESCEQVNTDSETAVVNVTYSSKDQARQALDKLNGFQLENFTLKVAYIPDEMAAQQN
Experimental: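 SELEX-seq with GST-tagged IMP3 RRM1-2 (Met1-Asn163) and an N40 RNA pool, round 2. 6-mer enrichment z-score normalised to GST SELEX. RNA written as DNA (T = U).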

IMP3 full-length = IMP3 full-length (UniProt O00425); conditions: construct: FL IMP3 (1-579); SELEX round: R4
Chain of UniProt O00425 (O00425 whole entry): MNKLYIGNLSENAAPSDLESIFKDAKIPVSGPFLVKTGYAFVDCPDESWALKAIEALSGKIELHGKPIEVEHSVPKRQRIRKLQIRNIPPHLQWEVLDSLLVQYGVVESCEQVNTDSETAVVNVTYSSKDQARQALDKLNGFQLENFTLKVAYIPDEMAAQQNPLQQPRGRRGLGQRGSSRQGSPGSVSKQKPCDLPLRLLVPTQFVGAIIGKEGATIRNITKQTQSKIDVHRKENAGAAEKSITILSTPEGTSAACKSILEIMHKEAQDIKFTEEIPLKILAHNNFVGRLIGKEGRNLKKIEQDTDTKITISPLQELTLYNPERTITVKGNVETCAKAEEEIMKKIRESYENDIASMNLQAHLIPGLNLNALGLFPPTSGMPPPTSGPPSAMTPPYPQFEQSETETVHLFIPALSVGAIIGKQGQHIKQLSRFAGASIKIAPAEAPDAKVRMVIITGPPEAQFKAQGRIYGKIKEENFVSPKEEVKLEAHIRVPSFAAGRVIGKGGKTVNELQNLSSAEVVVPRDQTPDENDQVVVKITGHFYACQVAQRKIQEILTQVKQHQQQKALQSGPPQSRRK
Experimental: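 SELEX-seq with GST-tagged full-length IMP3 and an N40 RNA pool, round 4. Each 6-mer is scored as an enrichment z-score of sequence tags containing it, normalised to the matching GST SELEX round. RNA written as DNA (T = U).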

IMP3 KH1-2 = conditions: construct: KH1-2 (164-376); SELEX round: R4
Chain of IMP3 KH1-2 (chain, as listed by the source): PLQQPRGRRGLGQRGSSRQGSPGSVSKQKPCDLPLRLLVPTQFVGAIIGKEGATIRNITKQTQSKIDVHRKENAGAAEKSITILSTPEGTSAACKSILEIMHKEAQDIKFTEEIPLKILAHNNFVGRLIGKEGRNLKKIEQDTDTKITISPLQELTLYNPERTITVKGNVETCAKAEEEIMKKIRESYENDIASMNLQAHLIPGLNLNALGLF
Experimental: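 SELEX-seq with GST-tagged IMP3 KH1-2 (Pro164-Phe376) and an N40 RNA pool, round 4 (stringent 300/600 mM KCl washes). 6-mer z-score of sequence-tag enrichment normalised to the corresponding GST SELEX round; RNA k-mers written as DNA (T for U).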

IMP3 KH3-4 = conditions: construct: KH3-4 (377-579); SELEX round: R4
Chain of IMP3 KH3-4 (chain, as listed by the source): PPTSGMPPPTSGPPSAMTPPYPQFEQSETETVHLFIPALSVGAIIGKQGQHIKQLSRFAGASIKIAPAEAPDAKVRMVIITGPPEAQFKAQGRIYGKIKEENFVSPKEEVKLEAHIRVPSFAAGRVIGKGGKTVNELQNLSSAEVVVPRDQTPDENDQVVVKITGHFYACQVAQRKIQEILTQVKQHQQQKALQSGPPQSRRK
Experimental: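 SELEX-seq with GST-tagged IMP3 KH3-4 (Pro377-Lys579) and an N40 RNA pool, round 4. 6-mer z-score of sequence-tag enrichment normalised to the corresponding GST SELEX round; RNA k-mers written as DNA (T for U).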

Chain of IMP3 KH1-4 (chain, as listed by the source): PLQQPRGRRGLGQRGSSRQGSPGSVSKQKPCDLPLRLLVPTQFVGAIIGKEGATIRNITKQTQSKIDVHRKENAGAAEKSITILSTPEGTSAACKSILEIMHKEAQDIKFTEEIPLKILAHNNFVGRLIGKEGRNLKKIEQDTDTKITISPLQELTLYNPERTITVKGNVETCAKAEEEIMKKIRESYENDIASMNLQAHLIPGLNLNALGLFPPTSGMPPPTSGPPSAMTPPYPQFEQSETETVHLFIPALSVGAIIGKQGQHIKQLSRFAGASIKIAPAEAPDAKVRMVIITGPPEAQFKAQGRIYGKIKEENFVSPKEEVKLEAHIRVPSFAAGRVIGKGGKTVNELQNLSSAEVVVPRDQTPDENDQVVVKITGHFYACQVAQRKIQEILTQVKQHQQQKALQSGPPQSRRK

Row | Sequence | 6-mer SELEX enrichment z-score (IMP3 KH1-4) | 6-mer SELEX enrichment z-score (IMP3 RRM1-2) | 6-mer SELEX enrichment z-score (IMP3 full-length) | 6-mer SELEX enrichment z-score (IMP3 KH1-2) | 6-mer SELEX enrichment z-score (IMP3 KH3-4)
1 | TGTAGA | -0.457 | -0.336 | -0.744 | -0.486 | -0.288
2 | CCGCAA | -0.388 | -0.345 | 0.073 | -0.093 | -0.784
3 | CTCCGG | -0.603 | -0.109 | -0.035 | -0.456 | -0.66
4 | CAACGG | -0.319 | -0.176 | 0.625 | -0.565 | -0.642
5 | CCTGAA | -1.1 | -1.18 | -1.48 | -1.14 | -1.34
6 | ATATTC | 1.42 | 0.435 | 0.546 | 1.38 | 1.46
7 | GCCAGA | -0.041 | -0.708 | -0.033 | -0.017 | -0.112
8 | AGACAC | 0.238 | 0.949 | 0.351 | 0.306 | -0.032
9 | AAGGAC | 0.039 | -1.07 | -0.565 | -0.227 | 0.042
10 | AGCGGA | -1.07 | -0.538 | -0.358 | -0.982 | -0.731
11 | CCAGCC | -0.607 | -0.601 | -0.426 | -0.561 | -1.33
12 | CCCCAG | -0.983 | -0.837 | -0.789 | -0.764 | -1.48
13 | AGTGAC | -0.248 | -0.309 | -0.32 | -0.385 | -0.368
14 | ATAGCC | -0.045 | -0.295 | -0.195 | -0.035 | -0.099
15 | CGAATG | -0.84 | -1.04 | -1.03 | -0.909 | -0.702
16 | CATACG | 0.831 | 0.669 | 1.13 | 0.744 | 0.35
17 | CGAGGC | -0.532 | -0.176 | 0.517 | -0.415 | -0.398
18 | GCATGA | 0.767 | 0.414 | 1.02 | 0.48 | 0.73
19 | TTCGTC | 0.01 | 0.398 | 0.24 | -0.04 | 0.039
20 | GACAGA | 0.378 | -0.834 | 0.183 | 0.427 | 0.293

Row | Sequence | 6-mer SELEX enrichment z-score (IMP3 KH1-4) | 6-mer SELEX enrichment z-score (IMP3 RRM1-2) | 6-mer SELEX enrichment z-score (IMP3 full-length) | 6-mer SELEX enrichment z-score (IMP3 KH1-2) | 6-mer SELEX enrichment z-score (IMP3 KH3-4)
21 | TATTTA | 1.2 | 0.241 | 0.272 | 1.11 | 1.91
22 | GAAGTC | 0.426 | -0.381 | 0.11 | 0.174 | 0.171
23 | TAATAG | 0.949 | -0.185 | 0.057 | 0.822 | 1.5
24 | CGTGGT | -0.953 | 0.276 | -0.426 | -0.814 | -0.688
25 | CAAGCC | -1.06 | -0.301 | -0.434 | -0.98 | -1.43
26 | AGCTAT | -0.191 | 0.058 | -0.15 | -0.159 | 0.031
27 | AAGATT | 0.951 | -0.782 | -0.326 | 0.655 | 1.66
28 | TGCGAG | -1.14 | -0.137 | -0.355 | -0.968 | -0.78
29 | AACGAA | -0.927 | -2.54 | -1.96 | -0.971 | -0.14
30 | GCGGAA | -0.764 | -0.575 | -0.304 | -0.7 | -0.549
31 | TCGGAG | -0.218 | 0.041 | 0.202 | -0.228 | -0.114
32 | CATTCC | 1.14 | 1.01 | 1.04 | 1.08 | 0.138
33 | ACGCAT | 0.524 | 0.722 | 0.762 | 0.28 | 0.023
34 | CACCAG | -0.186 | 1.72 | 0.692 | -0.281 | -0.814
35 | ATACTC | -0.592 | 0.01 | -0.458 | -0.435 | -0.589
36 | CTAGAC | -0.627 | -0.473 | -0.776 | -0.628 | -0.703
37 | TCCTCT | 0.643 | 0.105 | -0.088 | 0.487 | 0.153
38 | AGTTGA | -0.334 | -0.31 | -0.468 | -0.469 | -0.245
39 | AACGCT | -0.387 | -0.654 | -0.667 | -0.275 | -0.442
40 | CGCTTA | 0.168 | 0.001 | -0.022 | 0.29 | 0.254

Row | Sequence | 6-mer SELEX enrichment z-score (IMP3 KH1-4) | 6-mer SELEX enrichment z-score (IMP3 RRM1-2) | 6-mer SELEX enrichment z-score (IMP3 full-length) | 6-mer SELEX enrichment z-score (IMP3 KH1-2) | 6-mer SELEX enrichment z-score (IMP3 KH3-4)
41 | GGCATT | 0.437 | 0.711 | 1.07 | 0.276 | 0.4
42 | AATGCA | 1.45 | -0.083 | 0.578 | 1.12 | 1.27
43 | TACGGT | 0.243 | 0.205 | 0.103 | 0.099 | 0.191
44 | TGGAAC | -0.145 | -0.354 | -0.253 | -0.383 | -0.395
45 | TCATTA | 1.5 | 1.63 | 1.54 | 1.47 | 1.56
46 | GGGAGT | 0.741 | -0.083 | 0.467 | 0.858 | 0.807
47 | CAGGTA | -0.104 | 0.448 | 0.352 | -0.094 | -0.045
48 | ACGGGT | -0.566 | -0.125 | -0.076 | -0.424 | -0.231
49 | ACACGC | 0.797 | 1.03 | 1.19 | 0.869 | 0.07
50 | TAACAG | 0.732 | 0.018 | 0.529 | 0.89 | 1.04
51 | CAATGT | 0.369 | -0.011 | 0.154 | -0.005 | 0.23
52 | ACGTGA | -0.173 | -0.972 | -0.606 | -0.444 | -0.254
53 | TCCGCC | 0.349 | -0.276 | 0.152 | 0.499 | -0.563
54 | GTTGGG | 0.051 | 0.39 | 0.297 | 0.242 | 0.305
55 | GAAGTG | 0.069 | -0.591 | -0.388 | 0.005 | 0.21
56 | TAGCCT | -0.488 | -0.09 | -0.451 | -0.465 | -0.419
57 | TTATGC | 0.427 | 0.16 | -0.164 | 0.278 | 0.465
58 | CCTGCG | -1.9 | -0.286 | -1.06 | -1.7 | -1.81
59 | CAGGAA | 0.8 | -0.101 | 0.476 | 0.679 | 0.747
60 | GCGTGT | -1.07 | 0.18 | -0.506 | -0.955 | -0.789
